Source: the antibiotic and cytotoxicity screens of Wong et al. (2023)
This is one part of the list.

The molecules below were run on HepG2 (assay: cytotoxicity call (relative viability < 0.9)). Conditions: 10 µM.

SMILES | cytotoxicity call
OC[C@H]1O[C@H](O[C@]2(CCl)O[C@H](CCl)[C@@H](O)[C@@H]2O)[C@H](O)[C@@H](O)[C@H]1Cl | inactive
COC(=O)c1cnn2c(=O)c3c([nH]c12)CCC3 | inactive
C[C@@H]1CN([C@H](C)CO)C(=O)c2cc(NC(=O)NC3CCCCC3)ccc2O[C@@H]1CN(C)Cc1ccc(C(F)(F)F)cc1 | inactive
C[C@H](CO)N1C[C@H](C)[C@@H](CN(C)Cc2ccc(-c3ccccc3)cc2)Oc2ccc(NS(=O)(=O)c3ccc(Cl)cc3)cc2C1=O | active
NCc1nnnn1-c1ccc(F)cc1 | inactive
Cc1noc(C)c1S(=O)(=O)Nc1ccc2c(c1)CC(=O)N([C@H](C)CO)C[C@@H](C)[C@H](CN(C)S(=O)(=O)c1cccs1)O2 | inactive
C[C@@H]1CN([C@H](C)CO)C(=O)CCCn2cc(nn2)CO[C@@H]1CN(C)S(C)(=O)=O | inactive
C[C@@H]1CCCCO[C@H](CN(C)Cc2ccc(C(=O)O)cc2)[C@@H](C)CN([C@@H](C)CO)C(=O)c2cc(NC(=O)Nc3ccc4c(c3)OCO4)ccc2O1 | inactive
C[C@@H]1CN([C@@H](C)CO)C(=O)c2cccc(NC(=O)C3CCCCC3)c2O[C@H]1CN(C)C(=O)Nc1ccc(C(F)(F)F)cc1 | inactive
C[C@@H]1CN([C@H](C)CO)C(=O)CCCn2cc(nn2)CO[C@H]1CN(C)S(=O)(=O)c1ccc(C#N)cc1 | inactive
C=CCNC(=O)[C@H]1[C@@H]2C(=O)O[C@@H](c3ccccc3)[C@@H](c3ccccc3)N2[C@@H](c2ccccc2OCCO)[C@]12C(=O)N(C(=O)OCCOC)c1ccc(C#Cc3ccc(OC)cc3)cc12 | inactive
Cc1ccc(S(=O)(=O)Nc2ccc3c(c2)C(=O)N([C@H](C)CO)C[C@H](C)[C@H](CN(C)C(=O)Nc2ccc(C(F)(F)F)cc2)O3)cc1 | inactive
COc1ccc(S(=O)(=O)Nc2cccc3c2O[C@H](CN(C)Cc2ccc(Oc4ccccc4)cc2)[C@H](C)CN([C@@H](C)CO)C3=O)cc1 | active
C[C@@H]1CN([C@@H](C)CO)C(=O)c2cc(NC(=O)Nc3cccc4ccccc34)ccc2O[C@@H](C)CCCCO[C@@H]1CN(C)S(=O)(=O)c1ccccc1 | inactive
C[C@H]1CN([C@@H](C)CO)S(=O)(=O)c2ccc(C#CC(C)(C)O)cc2O[C@H]1CN(C)C(=O)CN(C)C | inactive
CN1CC(=O)Nc2ccc([N+](=O)[O-])cc2C1=O | inactive
C[C@H]1CN([C@@H](C)CO)C(=O)c2cccc(NS(=O)(=O)c3ccc(F)cc3)c2O[C@H]1CN(C)C(=O)Nc1ccc(C(F)(F)F)cc1 | inactive
CC(C)NC(=O)N(C)C[C@H]1Oc2ccc(NC(=O)Cn3cnnn3)cc2CC(=O)N([C@H](C)CO)C[C@H]1C | inactive
C[C@@H]1CCCCO[C@@H](CN(C)C(=O)NC2CCCCC2)[C@@H](C)CN([C@H](C)CO)C(=O)c2cc(NS(=O)(=O)c3cccs3)ccc2O1 | inactive
Cc1noc(C)c1S(=O)(=O)N(C)C[C@@H]1OCCCC[C@H](C)Oc2ccc(N(C)C)cc2C(=O)N([C@H](C)CO)C[C@H]1C | inactive

SMILES | cytotoxicity call
COc1ccc(NC(=O)N(C)C[C@H]2Oc3ncc(C#C[C@@H](C)O)cc3C(=O)N([C@@H](C)CO)C[C@@H]2C)cc1 | inactive
C[C@H](CO)N1C[C@H](C)[C@@H](CN(C)Cc2ccc(-c3ccccc3)cc2)Oc2ccc(NC(=O)CCC(F)(F)F)cc2C1=O | inactive
CC(=O)O[C@H]1CC(C)(C)C[C@H]2[C@]13CO[C@@]21CC[C@@H]2[C@@]4(C)CC[C@H](O[C@@H]5O[C@H](C(=O)O)[C@@H](O)[C@H](O[C@@H]6O[C@H](CO)[C@H](O)[C@H](O)[C@H]6O[C@@H]6O[C@@H](C)[C@H](O)[C@@H](O)[C@H]6O)[C@H]5O[C@@H]5O[C@H](CO)[C@@H](O)[C@H](O)[C@H]5O)C(C)(C)[C@@H]4CC[C@@]2(C)[C@]1(C)C[C@H]3O | active
C[C@H]1CCCCO[C@@H](CN(C)CC2CCCCC2)[C@@H](C)CN([C@@H](C)CO)C(=O)c2cc(NS(=O)(=O)c3ccc(F)cc3)ccc2O1 | inactive
C[C@@H]1CN([C@@H](C)CO)C(=O)c2cccc(NC(=O)c3nc4ccccc4s3)c2O[C@H]1CN(C)C(=O)Nc1cccc2ccccc12 | active
C[C@H]1CN([C@@H](C)CO)C(=O)Cc2cc(NS(=O)(=O)c3cn(C)cn3)ccc2O[C@@H]1CN(C)C(=O)Nc1ccc(F)cc1 | inactive
C[C@@H]1CCCCO[C@H](CN(C)Cc2ccc(C(=O)O)cc2)[C@H](C)CN([C@H](C)CO)C(=O)c2cc(NC(=O)c3ccccc3)ccc2O1 | inactive
COc1ccc(C=CC(=O)c2cc(O)ccc2O)cc1 | active
C[C@H]1CN([C@@H](C)CO)C(=O)CCCn2cc(nn2)CO[C@H]1CN(C)S(=O)(=O)c1ccc(-n2cccn2)cc1 | inactive
COc1ccc(NC(=O)N(C)C[C@H]2Oc3ccc(NC(=O)Nc4cccc5ccccc45)cc3C(=O)N([C@@H](C)CO)C[C@H]2C)cc1 | inactive
CCCCC(CC)COC(=O)C(C#N)=C(c1ccccc1)c1ccccc1 (stereo not given) | inactive
C[C@@H]1CCCCO[C@@H](CN(C)Cc2ccc(C(F)(F)F)cc2)[C@@H](C)CN([C@H](C)CO)C(=O)c2cc(NC(=O)Nc3ccccc3)ccc2O1 | inactive
COC[C@@H](C)NC(=O)C1CN(C(C)=O)C1 | inactive
Cc1c(C)n2c3c(=O)[nH]c(=O)n(C)c3nc2n1C | inactive
C[C@@H]1CN([C@@H](C)CO)C(=O)c2cc(NC(=O)Nc3ccc4c(c3)OCO4)ccc2O[C@@H](C)CCCCO[C@H]1CN(C)C(=O)Nc1ccccc1 | inactive
C[C@H](CO)N1C[C@H](C)[C@@H](CN(C)C(=O)Nc2cccc(F)c2)Oc2ncc(C#CCN(C)C)cc2C1=O | inactive
COc1ccc(S(=O)(=O)N(C)C[C@H]2Oc3c(NS(C)(=O)=O)cccc3C(=O)N([C@H](C)CO)C[C@@H]2C)cc1 | inactive
C[C@H](CO)N1C[C@H](C)[C@H](CN(C)Cc2ccc3c(c2)OCO3)OCCCC[C@H](C)Oc2ccc(NS(=O)(=O)c3cccs3)cc2C1=O | inactive
Cc1ccc(S(=O)(=O)N(C)C[C@@H]2OCCCC[C@@H](C)Oc3ccc(NS(=O)(=O)c4ccc(F)cc4)cc3C(=O)N([C@H](C)CO)C[C@@H]2C)cc1 | inactive
CC(C)NC(=O)N(C)C[C@H]1OCCCC[C@H](C)Oc2ccc(NS(=O)(=O)c3cn(C)cn3)cc2C(=O)N([C@@H](C)CO)C[C@@H]1C | inactive
